60 compounds from patent publication US7592316B2, “Peptides as NS3-serine protease inhibitors of hepatitis C virus” (Schering Corporation, priority 2000, dated 2009) can be followed below.

pKi: −log10 of the molar value.

This assay concerns the target HCV NS3/NS4A protease (strain 1a) (Hepatitis C virus genotype 1a, UniProt P27958). Put plainly: biochemical. Particulars: Table 5; HCV NS3/NS4A protease, spectrophotometric assay, 30° C., pH 6.5; read-out: Ki* Range.
For orientation: pKi means −log10 of the Ki, conventionally taken in molar units. For `CCCCC(NC(=O)[C@@H]1CC(C)(C)CN1C(=O)[C@@H](NC(=O)OC(C)(C)C)C(C)(C)C)C(=O)C(N)=O` (stereo partly drawn), the pKi is less than 6.00.
To `CCCC(NC(=O)[C@@H]1CC(C)(C)CN1C(=O)[C@@H](NC(=O)OC(C)(C)C)C(C)(C)C)C(=O)C(N)=O` (stereo partly drawn) belongs less than 6.00.
In the case of `CCCC(NC(=O)[C@@H]1C2CCC(C2)N1C(=O)[C@@H](NC(=O)OC(C)(C)C)C(C)(C)C)C(=O)C(N)=O` (stereo partly drawn), the pKi is less than 6.00.
As for `CC(C)(C)OC(=O)N[C@H](C(=O)N1C[C@H]2[C@@H]([C@H]1C(=O)NC1(C(=O)C(N)=O)CC1)C2(C)C)C(C)(C)C`, the pKi was 6.00 to 7.00.
To `CC(C)(C)OC(=O)N[C@H](C(=O)N1C[C@H]2[C@@H]([C@H]1C(=O)NC(CC1CC1)C(=O)C(N)=O)C2(C)C)C(C)(C)C` (stereo partly drawn) belongs 7.00 to 9.00; to `CCCC(NC(=O)[C@@H]1[C@@H]2[C@H](CN1C(=O)[C@@H](NC(=O)OC(C)(C)C)C1CCCCC1)C2(C)C)C(=O)C(N)=O` (stereo partly drawn), 7.00 to 9.00.
With `CCCC(NC(=O)[C@@H]1[C@@H]2[C@H](CN1C(=O)[C@@H](NC(=O)OC(C)C)C1CCCC1)C2(C)C)C(=O)C(N)=O` (stereo partly drawn), the pKi is 6.00 to 7.00.
The value for `CCCC(NC(=O)[C@@H]1[C@@H]2[C@H](CN1C(=O)[C@@H](NC(=O)OC(C)C)C(C)C)C2(C)C)C(=O)C(N)=O` (stereo partly drawn) was less than 6.00; that for `CCC(NC(=O)[C@@H]1[C@@H]2[C@H](CN1C(=O)[C@@H](NC(=O)OC(C)(C)C)C1CCCCC1)C2(C)C)C(=O)C(N)=O` (stereo partly drawn) was 6.00 to 7.00; that for `CCCC(NC(=O)[C@@H]1[C@@H]2[C@H](CN1C(=O)[C@@H](NC(=O)NC13CC4CC(CC(C4)C1)C3)C(C)(C)C)C2(C)C)C(=O)C(N)=O` (stereo partly drawn) was 7.00 to 9.00.
Take `CCCC(NC(=O)C1C2C(CN1C(=O)[C@@H](NC(=O)C(NC(=O)OC(C)(C)C)C(c1ccccc1)c1ccccc1)C(C)(C)C)C2(C)C)C(=O)C(N)=O` (stereo partly drawn): the pKi is less than 6.00.
The value for `CC(C)(C)OC(=O)N[C@H](C(=O)N1CC2C([C@H]1C(=O)NC(CC1CCC1)C(=O)C(N)=O)C2(C)C)C1CCCCC1` (stereo partly drawn) was 7.00 to 9.00.
For the compound `CCCC(NC(=O)[C@@H]1C2C(CN1C(=O)[C@@H](NC(=O)C1Cc3ccccc3N1C(=O)OC(C)(C)C)C1CCCCC1)C2(C)C)C(=O)C(N)=O` (stereo partly drawn), the pKi was 6.00 to 7.00.
To `CCCC(NC(=O)[C@@H]1C2C(CN1C(=O)C(NC(=O)Cc1cccnc1)C1CCCCC1)C2(C)C)C(=O)C(N)=O` (stereo partly drawn) belongs less than 6.00.
With `CCCC(NC(=O)[C@@H]1C2C(CN1C(=O)[C@@H](NC(=O)NC(C)(C)C)C1Cc3ccccc3C1)C2(C)C)C(=O)C(N)=O` (stereo partly drawn), the pKi was 6.00 to 7.00.
To `CCCC(NC(=O)C1C2C(CN1C(=O)[C@@H](NC(=O)NC(C)C)C1Cc3ccccc3C1)C2(C)C)C(=O)C(N)=O` (stereo partly drawn) belongs 6.00 to 7.00; to `CCCC(NC(=O)[C@@H]1C2C(CN1C(=O)[C@@H](NC(=O)NC13CC4CC(CC(C4)C1)C3)C1Cc3ccccc3C1)C2(C)C)C(=O)C(N)=O` (stereo partly drawn), 6.00 to 7.00.
The value for `CCCC(NC(=O)[C@@H]1C2C(CN1C(=O)[C@@H](NC(=O)NC1CCCCC1)C1Cc3ccccc3C1)C2(C)C)C(=O)C(N)=O` (stereo partly drawn) was 6.00 to 7.00.
On to `CC(C)NC(=O)N[C@H](C(=O)N1C[C@@H]2[C@H]([C@H]1C(=O)NC(CC1CC1)C(=O)C(N)=O)C2(C)C)C1Cc2ccccc2C1` (stereo partly drawn), for which the pKi was 7.00 to 9.00.
To `CC1(C)[C@H]2[C@@H](C(=O)NC(CC3CC3)C(=O)C(N)=O)N(C(=O)[C@@H](NC(=O)NC3CCCCC3)C3Cc4ccccc4C3)C[C@H]21` (stereo partly drawn) belongs 7.00 to 9.00.
To `CC(C)NC(=O)N[C@H](C(=O)N1C[C@H]2[C@@H]([C@H]1C(=O)NC(CC1CC1)C(=O)C(N)=O)C2(C)C)C1CCCCC1` (stereo partly drawn) belongs 7.00 to 9.00; to `CC(C)(C)NC(=O)N[C@H](C(=O)N1C[C@H]2[C@@H]([C@H]1C(=O)NC(CC1CC1)C(=O)C(N)=O)C2(C)C)C(C)(C)C` (stereo partly drawn), 7.00 to 9.00.
As to `CC(C)(C)[C@H](NC(=O)NC1CCCCC1)C(=O)N1C[C@H]2[C@@H]([C@H]1C(=O)NC(CC1CC1)C(=O)C(N)=O)C2(C)C` (stereo partly drawn), the pKi was 7.00 to 9.00.
The value for `CC(C)(C)OC(=O)N[C@H](C(=O)N1CC2C([C@H]1C(=O)NC(CC1CCC1)C(=O)C(N)=O)C2(C)C)C1Cc2ccccc2C1` (stereo partly drawn) was 6.00 to 7.00; that for `CCCC(NC(=O)C1C2C(CN1C(=O)C(NC(=O)C1Cc3ccccc3N1)C1CCCCC1)C2(C)C)C(=O)C(N)=O` (stereo not drawn) was less than 6.00.
To `CCCC(NC(=O)C1C2C(CN1C(=O)C(NC(=O)Cc1cccc(C)c1)C1CCCCC1)C2(C)C)C(=O)C(N)=O` (stereo not drawn) belongs 6.00 to 7.00.
For `CCCC(NC(=O)C1C2C(CN1C(=O)C(NC(=O)NC(C)c1ccccc1)C1CCCCC1)C2(C)C)C(=O)C(N)=O` (stereo not drawn), the pKi is 6.00 to 7.00.
To `CC(C)(C)NC(=O)N[C@H](C(=O)N1C[C@@H]2[C@H]([C@H]1C(=O)NC(CC1CC1)C(=O)C(N)=O)C2(C)C)C1Cc2ccccc2C1` (stereo partly drawn) belongs 7.00 to 9.00; to `CCC(C)NC(=O)N[C@H](C(=O)N1C[C@@H]2[C@H]([C@H]1C(=O)NC(CC1CC1)C(=O)C(N)=O)C2(C)C)C1Cc2ccccc2C1` (stereo partly drawn), 7.00 to 9.00.
The value for `CC1(C)[C@H]2[C@@H](C(=O)NC(CC3CC3)C(=O)C(N)=O)N(C(=O)[C@@H](NC(=O)NC34CC5CC(CC(C5)C3)C4)C3Cc4ccccc4C3)C[C@H]21` (stereo partly drawn) was 7.00 to 9.00; that for `CCCC(NC(=O)C1C2C(CN1C(=O)C(NC(=O)Cc1cn(C)cn1)C1CCCCC1)C2(C)C)C(=O)C(N)=O` (stereo not drawn) was less than 6.00; that for `CC(C)(C)OC(=O)N[C@H](C(=O)N1C[C@@H]2[C@H]([C@H]1C(=O)NC(CC1CC1)C(=O)C(N)=O)C2(Cl)Cl)C1CCCCC1` (stereo partly drawn) was 7.00 to 9.00.
On to `CCCC(NC(=O)C1C2C(CN1C(=O)C(NC(=O)N1CCOCC1)C1CCCCC1)C2(C)C)C(=O)C(N)=O` (stereo not drawn), for which the pKi was less than 6.00.
To `CCCC(NC(=O)C1C2C(CN1C(=O)C(NC(=O)OC(C)C(C)(C)C)C1CCCCC1)C2(C)C)C(=O)C(N)=O` (stereo not drawn) belongs 6.00 to 7.00; to `CCCC(NC(=O)[C@@H]1[C@H]2[C@@H](CN1C(=O)[C@@H](NC(=O)OC(C)(C)C)C1CCCCC1)C2(Cl)Cl)C(=O)C(N)=O` (stereo partly drawn), 7.00 to 9.00.
The value for `CC(C)(C)OC(=O)N[C@H](C(=O)N1C[C@@H]2[C@H]([C@H]1C(=O)NC(CC1CC1)C(=O)C(N)=O)C2(Br)Br)C1CCCCC1` (stereo partly drawn) was 7.00 to 9.00.
With `CC(C)(C)OC(=O)N[C@H](C(=O)N1C[C@H]2OC(C)(C)C[C@H]2[C@H]1C(=O)NC(CC1CC1)C(=O)C(N)=O)C1CCCCC1` (stereo partly drawn), the pKi is 6.00 to 7.00.
Regarding `CCCC(NC(=O)[C@@H]1[C@@H]2[C@H](CN1C(=O)C(NC(=O)NC1(C)CC1)C1CCCCC1)C2(C)C)C(=O)C(N)=O` (stereo partly drawn), the pKi was 6.00 to 7.00.
Take `CCCC(NC(=O)[C@@H]1[C@@H]2[C@H](CN1C(=O)[C@@H](NC(=O)NC1(C)CC1)C(C)(C)C)C2(C)C)C(=O)C(N)=O` (stereo partly drawn): the pKi was 6.00 to 7.00.
To `CC(C)OC(=O)N[C@H](C(=O)N1CC2C([C@H]1C(=O)NC(CC1CCC1)C(=O)C(N)=O)C2(C)C)C1CCCCC1` (stereo partly drawn) belongs 7.00 to 9.00.
Take `CCCC(NC(=O)[C@@H]1[C@@H]2[C@H](CN1C(=O)[C@@H](NC(=S)NC(C)(C)C)C(C)(C)C)C2(C)C)C(=O)C(N)=O` (stereo partly drawn): the pKi is less than 6.00.
`CC1(NC(=O)N[C@H](C(=O)N2C[C@H]3[C@@H]([C@H]2C(=O)NC(CC2CC2)C(=O)C(N)=O)C3(C)C)C(C)(C)C)CC1` (stereo partly drawn): the pKi was 7.00 to 9.00.
To `CC1(NC(=O)N[C@H](C(=O)N2C[C@H]3[C@@H]([C@H]2C(=O)NC(CC2CC2)C(=O)C(N)=O)C3(C)C)C2CCCCC2)CC1` (stereo partly drawn) belongs 6.00 to 7.00; to `CC1(C)[C@@H]2[C@@H](C(=O)NC(CC3CC3)C(=O)C(N)=O)N(C(=O)[C@@H](NC(=O)NC3CC3)C3CCCCC3)C[C@@H]21` (stereo partly drawn), 6.00 to 7.00.
Regarding `CC(C)(C)OC(=O)NC(C(=O)N1C[C@@H]2[C@H]([C@H]1C(=O)NC(CC1CC1)C(=O)C(N)=O)C2(Cl)Cl)C1CCCCC1` (stereo partly drawn), the pKi is 6.00 to 7.00.
To `CC(C)(C)OC(=O)N[C@H](C(=O)N1C[C@@H]2[C@H]([C@H]1C(=O)NC(CC1CCCC1)C(=O)C(N)=O)C2(C)C)C1CCCCC1` (stereo partly drawn) belongs 6.00 to 7.00.
The value for `C=C(C)CC(NC(=O)[C@@H]1[C@H]2[C@@H](CN1C(=O)[C@@H](NC(=O)OC(C)(C)C)C1CCCCC1)C2(C)C)C(=O)C(N)=O` (stereo partly drawn) was 6.00 to 7.00; that for `CCCC(NC(=O)C1C2C(CN1C(=O)C(CC1CC1)NC(=O)OC(C)(C)C)C2(C)C)C(=O)C(N)=O` (stereo not drawn) was less than 6.00.
For the compound `CC(C)(C)NC(=O)N[C@H](C(=O)N1CC2C([C@H]1C(=O)NC(CC1CCC1)C(=O)C(N)=O)C2(C)C)C1CCCCC1` (stereo partly drawn), the pKi was 7.00 to 9.00.
The value for `CC(C)(C)COC(=O)NC(C(=O)N1CC2C(C1C(=O)NC(CC1CCC1)C(=O)C(N)=O)C2(C)C)C1CCCCC1` (stereo not drawn) was 7.00 to 9.00; that for `CC1(OC(=O)N[C@H](C(=O)N2C[C@H]3[C@@H]([C@H]2C(=O)NC(CC2CC2)C(=O)C(N)=O)C3(C)C)C(C)(C)C)CC1` (stereo partly drawn) was 6.00 to 7.00.
As for `CC(C)(C)[C@H](NC(=O)NC1CC1)C(=O)N1C[C@H]2[C@@H]([C@H]1C(=O)NC(CC1CC1)C(=O)C(N)=O)C2(C)C` (stereo partly drawn), the pKi was 6.00 to 7.00.
The value for `C=CCCC(NC(=O)[C@@H]1C2OC(C)(C)OC2CN1C(=O)[C@@H](NC(=O)OC(C)(C)C)C(C)(C)C)C(=O)C(N)=O` (stereo partly drawn) was less than 6.00; that for `CC(C)NC(=O)N[C@H](C(=O)N1CC2C([C@H]1C(=O)NC(CC1CCC1)C(=O)C(N)=O)C2(C)C)C1CCCCC1` (stereo partly drawn) was 7.00 to 9.00; that for `CC(C)(C)OC(=O)N[C@H](C(=O)N1C[C@H]2[C@@H]([C@H]1C(=O)NC(CC(F)(F)F)C(=O)C(N)=O)C2(C)C)C1CCCCC1` (stereo partly drawn) was 7.00 to 9.00.
The value for `CC(C)(C)OC(=O)N[C@H](C(=O)N1C[C@@H]2[C@H]([C@H]1C(=O)NC(CC1CCC1)C(=O)C(N)=O)C2(C)C)C1CCC2(CC1)CC2` (stereo partly drawn) was 7.00 to 9.00; that for `CC(C)COC(=O)N[C@H](C(=O)N1C[C@@H]2[C@H]([C@H]1C(=O)NC(CC1CC1)C(=O)C(N)=O)C2(C)C)C1Cc2ccccc2C1` (stereo partly drawn) was 7.00 to 9.00.
For `CC(C)(C)COC(=O)N[C@H](C(=O)N1C[C@@H]2[C@H]([C@H]1C(=O)NC(CC1CC1)C(=O)C(N)=O)C2(C)C)C1Cc2ccccc2C1` (stereo partly drawn), the pKi is 7.00 to 9.00.
To `CC(C)(C)OC(=O)NC(C(=O)N1C[C@H]2[C@@H]([C@H]1C(=O)NC(CC1CC1)C(=O)C(N)=O)C2(Cl)Cl)C1Cc2ccccc2C1` (stereo partly drawn) belongs 7.00 to 9.00; to `CC(C)(C)OC(=O)N[C@H](C(=O)N1C[C@@H]2[C@H]([C@H]1C(=O)NC(CC1CCC1)C(=O)C(N)=O)C2(C)C)C1CC2CCCCC2C1` (stereo partly drawn), 6.00 to 7.00.
